# Over roughly 33,000 sequences, “E-score (-0.5 to 0.5)” has its median near -0.036; the highest 2% begin near 0.37. Some of the results follow.
# Biological target: T1, Yer064c (UniProt P40041)
# T1 sequence: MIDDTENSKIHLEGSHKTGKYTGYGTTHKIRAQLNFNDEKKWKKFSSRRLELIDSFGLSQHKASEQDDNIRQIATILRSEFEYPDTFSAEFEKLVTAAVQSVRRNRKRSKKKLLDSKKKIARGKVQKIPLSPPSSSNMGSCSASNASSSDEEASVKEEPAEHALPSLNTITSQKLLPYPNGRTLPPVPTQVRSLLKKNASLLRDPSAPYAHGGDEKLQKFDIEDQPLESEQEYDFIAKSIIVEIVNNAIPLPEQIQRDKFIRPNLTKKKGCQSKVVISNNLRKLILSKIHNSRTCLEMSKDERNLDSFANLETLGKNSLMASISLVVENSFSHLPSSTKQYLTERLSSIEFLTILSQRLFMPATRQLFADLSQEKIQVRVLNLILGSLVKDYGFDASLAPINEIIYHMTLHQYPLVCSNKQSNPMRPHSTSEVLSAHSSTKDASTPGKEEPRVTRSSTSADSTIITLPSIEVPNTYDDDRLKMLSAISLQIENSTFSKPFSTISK
# Assay: PBM E-score (8-mer binding enrichment) (E-score (-0.5 to 0.5)); higher = stronger / more preferred TF binding; most listed sequences are background and not binding sites
# Conditions: protein concentration: 200 nM; construct: GST-full length
# Method in brief: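 GST-tagged yeast TFs (full-length or DNA-binding domain) were made by PURExpress in vitro transcription/translation and applied at about 100-200 nM to universal all-10-mer Agilent arrays. The arrays were made double-stranded by primer extension, on fresh or once-stripped slides. Bound protein was detected with fluorescent anti-GST, and scans were normalised with masliner. Each ungapped eight-base word, pooled with its reverse complement, received an E-score (modified Wilcoxon-Mann-Whitney statistic) from the Universal PBM Analysis Suite.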
row,Sequence,PBM E-score
1,ACTAACTG,0.27
2,GCCAGAGA,-0.0259
3,CATGAGGG,-0.0866
4,CATTTGTC,-0.0893
5,GTAGAGGA,-0.303
6,ACCCTCGG,-0.163
7,CATACTGA,0.196
8,CCCTTGAG,0.0766
9,GCCACTGA,0.171
10,ATAACTTC,-0.154
11,GAAGGTTA,0.0921
12,AAGGAGGA,-0.212
13,CCATAACG,-0.0401
14,GAGCCTGA,0.0249
15,GGAAAATA,-0.141
16,AACGTCTA,0.0385
17,ACCGCGAT,-0.133
18,AAGATCCC,-0.11
19,AGGCGATC,-0.099
20,GGATGAGA,0.0635
21,ATTGGTGA,0.121
22,CGTGGTGC,-0.306
23,ATTACACA,0.253
24,CCACATGC,0.011

row,Sequence,PBM E-score
1,GAGTTCAA,0.2
2,CGGTTTGC,-0.251
3,AAAGATTG,-0.0779
4,ACTTAGGG,0.0998
5,GGGCGGCA,-0.406
6,CTGAATCC,0.235
7,AGCCTCAG,-0.212
8,AGGAATCG,0.235
9,CCGAGCGG,-0.179
10,CATGGTGC,-0.127
11,GTCATTTA,0.311
12,AGGGTTTG,-0.146
13,CACCGCGC,-0.208
14,AAGTTTAG,0.126
15,ATCACACG,0.202
16,ATTCTGAA,0.0724
17,CGGTTTGA,0.128
18,CAGGAGCA,-0.197
19,GCGGCCGA,-0.137
20,CATCGTCC,0.0233
21,AAGACTGC,0.137
22,ACACAGCA,0.074
23,TAAATAGA,-0.0313
24,AGCGACTG,0.255

row,Sequence,PBM E-score
1,AGATGCAA,-0.0465
2,AACAGCAG,-0.26
3,AACAGACA,0.0465
4,CAATTCCG,-0.128
5,GACAGACC,-0.14
6,AGATTCTC,0.0991
7,ATCACGAC,0.225
8,CTGATCAG,0.0524
9,AACAATAG,-0.0575
10,CGTATCAA,0.0087
11,GCACTTGA,0.0209
12,TGATTCCA,0.398
13,ATGCGCTC,-0.234
14,ACACCTTA,0.0237
15,CACATGTC,0.0407
16,AATGCAGG,-0.108
17,ACATAAGA,0.137
18,ATTGTCGA,-0.00639
19,ATGCGCCG,-0.118
20,ACTACGAT,0.233
21,AGTGCGCA,-0.142
22,CAGGAGCC,-0.202
23,GTGGCACA,-0.0722
24,AGGTTGGC,-0.296

row,Sequence,PBM E-score
1,AGTGTACC,-0.228
2,CTTTTTTC,0.118
3,GCCGGCGC,-0.146
4,CTGGTTCC,-0.171
5,TAGCCCGA,-0.192
6,CCGATGAA,-0.0637
7,GATCCTGC,-0.186
8,AGAGTCCT,0.298
9,GACCCAGA,-0.115
10,CACTTATG,0.0565
11,TACTGCCA,-0.16
12,CCCGAAGC,-0.156
13,CGCGGGAG,0.0995
14,TCTTCTCA,0.197
15,GCGCCAAC,-0.196
16,ATTAAAAC,0.148
17,ACCAGAGT,0.179
18,CCACAGTA,-0.00862
19,ACGGGCAG,0.0109
20,GAGATTAA,0.245
21,ATTTGTTA,0.0563
22,AGAGGCTC,-0.195
